Measured values from the supplement of paper PMC11876631.
± gives the standard deviation of the averaged measurements. Laboratory Escherichia coli strains with one amino-acid change in an essential protein, pooled on minimal glucose agar with carbenicillin or gentamicin at twice the control MIC (plus kanamycin and chloramphenicol for the plasmids), 48 h. Fold change of barcode share against drug-free plates; higher = less susceptible. Active = above 20 in both replicates (the paper's putatively resistant). '<' = one read or none on drug, '>' = one read or none on a drug-free plate. Shares are relative, so most strains fall below 1 when a few take over. Listed are strains with at least 15 reads on both drug-free plates, and hits; most hits rest on fewer reference reads. Replicate rank correlation about 0.5. Edits are read from barcodes.

Molecular target: Escherichia coli (laboratory strain)
Test: barcode share on antibiotic plates over drug-free plates; higher = less susceptible
Description: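 A pool of E. coli strains, each edited to carry one amino-acid change in an essential protein, was grown for 48 h on minimal glucose agar with or without antibiotic; strain barcodes were sequenced; mean of two replicates.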

[1] = antibiotic: carbenicillin, 2× MIC (3.1 µg/mL)
[2] = antibiotic: gentamicin, 2× MIC (MIC 0.45 µg/mL)

| Protein | fold change of barcode share [1] | fold change of barcode share [2] |
| --- | --- | --- |
| carA L209P (protein) MIKSALLVLEDGTQFHGRAIGATGSAVGEVVFNTSMTGYQEILTDPSYSRQIVTLTYPHIGNVGTNDADEESSQVHAQGLVIRDLPLIASNFRNTEDLSSYLKRHNIVAIADIDTRKLTRLLREKGAQNGCIIAGDNPDAALALEKARAFPGLNGMDLAKEVTTAEAYSWTQGSWTLTGGLPEAKKEDELPFHVVAYDFGAKRNILRMPVDRGCRLTIVPAQTSAEDVLKMNPDGIFLSNGPGDPAPCDYAITAIQKFLETDIPVFGICLGHQLLALASGAKTVKMKFGHHGGNHPVKDVEKNVVMITAQNHGFAVDEATLPANLRVTHKSLFDGTLQGIHRTDKPAFSFQGHPEASPGPHDAAPLFDHFIELIEQYRKTAK | 0.4 ± 0.1 | 0.0193 ± 0.0023 |
| carA L206W (protein) MIKSALLVLEDGTQFHGRAIGATGSAVGEVVFNTSMTGYQEILTDPSYSRQIVTLTYPHIGNVGTNDADEESSQVHAQGLVIRDLPLIASNFRNTEDLSSYLKRHNIVAIADIDTRKLTRLLREKGAQNGCIIAGDNPDAALALEKARAFPGLNGMDLAKEVTTAEAYSWTQGSWTLTGGLPEAKKEDELPFHVVAYDFGAKRNIWRMLVDRGCRLTIVPAQTSAEDVLKMNPDGIFLSNGPGDPAPCDYAITAIQKFLETDIPVFGICLGHQLLALASGAKTVKMKFGHHGGNHPVKDVEKNVVMITAQNHGFAVDEATLPANLRVTHKSLFDGTLQGIHRTDKPAFSFQGHPEASPGPHDAAPLFDHFIELIEQYRKTAK | 0.715 ± 0.36 | 0.0203 ± 0.0073 |
| carA L206A (protein) MIKSALLVLEDGTQFHGRAIGATGSAVGEVVFNTSMTGYQEILTDPSYSRQIVTLTYPHIGNVGTNDADEESSQVHAQGLVIRDLPLIASNFRNTEDLSSYLKRHNIVAIADIDTRKLTRLLREKGAQNGCIIAGDNPDAALALEKARAFPGLNGMDLAKEVTTAEAYSWTQGSWTLTGGLPEAKKEDELPFHVVAYDFGAKRNIARMLVDRGCRLTIVPAQTSAEDVLKMNPDGIFLSNGPGDPAPCDYAITAIQKFLETDIPVFGICLGHQLLALASGAKTVKMKFGHHGGNHPVKDVEKNVVMITAQNHGFAVDEATLPANLRVTHKSLFDGTLQGIHRTDKPAFSFQGHPEASPGPHDAAPLFDHFIELIEQYRKTAK | 0.626 ± 0.11 | 0.00606 ± 0.0023 |
| carA F266W (protein) MIKSALLVLEDGTQFHGRAIGATGSAVGEVVFNTSMTGYQEILTDPSYSRQIVTLTYPHIGNVGTNDADEESSQVHAQGLVIRDLPLIASNFRNTEDLSSYLKRHNIVAIADIDTRKLTRLLREKGAQNGCIIAGDNPDAALALEKARAFPGLNGMDLAKEVTTAEAYSWTQGSWTLTGGLPEAKKEDELPFHVVAYDFGAKRNILRMLVDRGCRLTIVPAQTSAEDVLKMNPDGIFLSNGPGDPAPCDYAITAIQKFLETDIPVWGICLGHQLLALASGAKTVKMKFGHHGGNHPVKDVEKNVVMITAQNHGFAVDEATLPANLRVTHKSLFDGTLQGIHRTDKPAFSFQGHPEASPGPHDAAPLFDHFIELIEQYRKTAK | 0.258 ± 0.091 | 0.0183 ± 0.016 |
| carA F266D (protein) MIKSALLVLEDGTQFHGRAIGATGSAVGEVVFNTSMTGYQEILTDPSYSRQIVTLTYPHIGNVGTNDADEESSQVHAQGLVIRDLPLIASNFRNTEDLSSYLKRHNIVAIADIDTRKLTRLLREKGAQNGCIIAGDNPDAALALEKARAFPGLNGMDLAKEVTTAEAYSWTQGSWTLTGGLPEAKKEDELPFHVVAYDFGAKRNILRMLVDRGCRLTIVPAQTSAEDVLKMNPDGIFLSNGPGDPAPCDYAITAIQKFLETDIPVDGICLGHQLLALASGAKTVKMKFGHHGGNHPVKDVEKNVVMITAQNHGFAVDEATLPANLRVTHKSLFDGTLQGIHRTDKPAFSFQGHPEASPGPHDAAPLFDHFIELIEQYRKTAK | 0.236 ± 0.0085 |  |
| carA F266A (protein) MIKSALLVLEDGTQFHGRAIGATGSAVGEVVFNTSMTGYQEILTDPSYSRQIVTLTYPHIGNVGTNDADEESSQVHAQGLVIRDLPLIASNFRNTEDLSSYLKRHNIVAIADIDTRKLTRLLREKGAQNGCIIAGDNPDAALALEKARAFPGLNGMDLAKEVTTAEAYSWTQGSWTLTGGLPEAKKEDELPFHVVAYDFGAKRNILRMLVDRGCRLTIVPAQTSAEDVLKMNPDGIFLSNGPGDPAPCDYAITAIQKFLETDIPVAGICLGHQLLALASGAKTVKMKFGHHGGNHPVKDVEKNVVMITAQNHGFAVDEATLPANLRVTHKSLFDGTLQGIHRTDKPAFSFQGHPEASPGPHDAAPLFDHFIELIEQYRKTAK | 0.345 ± 0.27 |  |
| tyrS F271Q (protein) MASSNLIKQLQERGLVAQVTDEEALAERLAQGPIALYCGFDPTADSLHLGHLVPLLCLKRFQQAGHKPVALVGGATGLIGDPSFKAAERKLNTEETVQEWVDKIRKQVAPFLDFDCGENSAIAANNYDWFGNMNVLTFLRDIGKHFSVNQMINKEAVKQRLNREDQGISFTEFSYNLLQGYDFACLNKQYGVVLQIGGSDQWGNITSGIDLTRRLHQNQVFGLTVPLITKADGTKFGKTEGGAVWLDPKKTSPYKFYQFWINTADADVYRQLKFFTFMSIEEINALEEEDKNSGKAPRAQYVLAEQVTRLVHGEEGLQAAKRITECLFSGSLSALSEADFEQLAQDGVPMVEMEKGADLMQALVDSELQPSRGQARKTIASNAITINGEKQSDPEYFFKEEDRLFGRFTLLRRGKKNYCLICWK | 0.259 ± 0.13 |  |
| tyrS V108W (protein) MASSNLIKQLQERGLVAQVTDEEALAERLAQGPIALYCGFDPTADSLHLGHLVPLLCLKRFQQAGHKPVALVGGATGLIGDPSFKAAERKLNTEETVQEWVDKIRKQWAPFLDFDCGENSAIAANNYDWFGNMNVLTFLRDIGKHFSVNQMINKEAVKQRLNREDQGISFTEFSYNLLQGYDFACLNKQYGVVLQIGGSDQWGNITSGIDLTRRLHQNQVFGLTVPLITKADGTKFGKTEGGAVWLDPKKTSPYKFYQFWINTADADVYRFLKFFTFMSIEEINALEEEDKNSGKAPRAQYVLAEQVTRLVHGEEGLQAAKRITECLFSGSLSALSEADFEQLAQDGVPMVEMEKGADLMQALVDSELQPSRGQARKTIASNAITINGEKQSDPEYFFKEEDRLFGRFTLLRRGKKNYCLICWK | 0.261 ± 0.018 | 0.0127 ± 0.0066 |
| tyrS V108Q (protein) MASSNLIKQLQERGLVAQVTDEEALAERLAQGPIALYCGFDPTADSLHLGHLVPLLCLKRFQQAGHKPVALVGGATGLIGDPSFKAAERKLNTEETVQEWVDKIRKQQAPFLDFDCGENSAIAANNYDWFGNMNVLTFLRDIGKHFSVNQMINKEAVKQRLNREDQGISFTEFSYNLLQGYDFACLNKQYGVVLQIGGSDQWGNITSGIDLTRRLHQNQVFGLTVPLITKADGTKFGKTEGGAVWLDPKKTSPYKFYQFWINTADADVYRFLKFFTFMSIEEINALEEEDKNSGKAPRAQYVLAEQVTRLVHGEEGLQAAKRITECLFSGSLSALSEADFEQLAQDGVPMVEMEKGADLMQALVDSELQPSRGQARKTIASNAITINGEKQSDPEYFFKEEDRLFGRFTLLRRGKKNYCLICWK | 0.209 ± 0.059 | 0.0365 ± 0.031 |
| tyrS V108A (protein) MASSNLIKQLQERGLVAQVTDEEALAERLAQGPIALYCGFDPTADSLHLGHLVPLLCLKRFQQAGHKPVALVGGATGLIGDPSFKAAERKLNTEETVQEWVDKIRKQAAPFLDFDCGENSAIAANNYDWFGNMNVLTFLRDIGKHFSVNQMINKEAVKQRLNREDQGISFTEFSYNLLQGYDFACLNKQYGVVLQIGGSDQWGNITSGIDLTRRLHQNQVFGLTVPLITKADGTKFGKTEGGAVWLDPKKTSPYKFYQFWINTADADVYRFLKFFTFMSIEEINALEEEDKNSGKAPRAQYVLAEQVTRLVHGEEGLQAAKRITECLFSGSLSALSEADFEQLAQDGVPMVEMEKGADLMQALVDSELQPSRGQARKTIASNAITINGEKQSDPEYFFKEEDRLFGRFTLLRRGKKNYCLICWK | 0.47 ± 0.1 | < 0.0125 |
| tyrS W260Q (protein) MASSNLIKQLQERGLVAQVTDEEALAERLAQGPIALYCGFDPTADSLHLGHLVPLLCLKRFQQAGHKPVALVGGATGLIGDPSFKAAERKLNTEETVQEWVDKIRKQVAPFLDFDCGENSAIAANNYDWFGNMNVLTFLRDIGKHFSVNQMINKEAVKQRLNREDQGISFTEFSYNLLQGYDFACLNKQYGVVLQIGGSDQWGNITSGIDLTRRLHQNQVFGLTVPLITKADGTKFGKTEGGAVWLDPKKTSPYKFYQFQINTADADVYRFLKFFTFMSIEEINALEEEDKNSGKAPRAQYVLAEQVTRLVHGEEGLQAAKRITECLFSGSLSALSEADFEQLAQDGVPMVEMEKGADLMQALVDSELQPSRGQARKTIASNAITINGEKQSDPEYFFKEEDRLFGRFTLLRRGKKNYCLICWK | 0.345 ± 0.27 | < 0.00873 |
| tyrS V108P (protein) MASSNLIKQLQERGLVAQVTDEEALAERLAQGPIALYCGFDPTADSLHLGHLVPLLCLKRFQQAGHKPVALVGGATGLIGDPSFKAAERKLNTEETVQEWVDKIRKQPAPFLDFDCGENSAIAANNYDWFGNMNVLTFLRDIGKHFSVNQMINKEAVKQRLNREDQGISFTEFSYNLLQGYDFACLNKQYGVVLQIGGSDQWGNITSGIDLTRRLHQNQVFGLTVPLITKADGTKFGKTEGGAVWLDPKKTSPYKFYQFWINTADADVYRFLKFFTFMSIEEINALEEEDKNSGKAPRAQYVLAEQVTRLVHGEEGLQAAKRITECLFSGSLSALSEADFEQLAQDGVPMVEMEKGADLMQALVDSELQPSRGQARKTIASNAITINGEKQSDPEYFFKEEDRLFGRFTLLRRGKKNYCLICWK | 0.167 ± 0.025 | 0.0186 ± 0.0029 |
